Measured values published in the supplement of paper PMC8728848.
This is one part of the list.

Experiments:
Assay in all cases: glycan array binding signal (z-score within array); higher = stronger binding
Conditions in all cases: glycan notation: IUPAC condensed, linker removed
[1] = biological target: Fuc(a1-2)Gal(b1-4)[Fuc(a1-3)]GlcNAc(b1-2)[Fuc(a1-2)Gal(b1-4)[Fuc(a1-3)]GlcNAc(b1-4)]Man(a1-3)[Fuc(a1-2)Gal(b1-4)[Fuc(a1-3)]GlcNAc(b1-2)Man(a1-6)]Man(b1-4)GlcNAc(b1-4)GlcNAc
Procedure, shortened: (§1)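 Glycan array data came from 3228 arrays in the Consortium for Functional Glycomics database, and only arrays with an available protein sequence were kept. Glycan names were put into IUPAC-condensed notation, and columns mapping to the same glycan were averaged. The binding signal is a within-array Z-score, averaged across arrays of one protein sequence run at different concentrations or buffers and across linkers. A negative Z-score can be read as non-binding.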

[2] = biological target: Fuc(a1-2)Gal(b1-4)[Fuc(a1-3)]GlcNAc(b1-3)Gal(b1-4)[Fuc(a1-3)]GlcNAc
Procedure, shortened: as §1

[3] = biological target: Fuc(a1-2)Gal(b1-4)[Fuc(a1-3)]GlcNAc(b1-3)Gal(b1-4)[Fuc(a1-3)]GlcNAc(b1-3)Gal(b1-4)[Fuc(a1-3)]GlcNAc
Procedure, shortened: as §1

[4] = biological target: Fuc(a1-2)Gal(b1-4)[Fuc(a1-3)]GlcNAc(b1-3)GalNAc
Procedure, shortened: as §1

[5] = biological target: Fuc(a1-2)Gal(b1-4)[Fuc(a1-3)]GlcNAc(b1-3)[Neu5Ac(a2-6)Gal(b1-4)GlcNAc(b1-6)]Gal(b1-4)Glc
Procedure, shortened: as §1

[6] = biological target: Fuc(a1-2)Gal3S(b1-4)GlcNAc
Procedure, shortened: as §1

[7] = biological target: Fuc(a1-2)Gal6S(b1-3)GlcNAc
Procedure, shortened: as §1

[8] = biological target: Fuc(a1-2)Gal6S(b1-3)GlcNAc6S
Procedure, shortened: as §1

Fuc(a1-2)Gal6S(b1-4)Glc = biological target: Fuc(a1-2)Gal6S(b1-4)Glc
Procedure, shortened: as §1

[9] = biological target: Fuc(a1-2)Gal6S(b1-4)Glc6S
Procedure, shortened: as §1

[10] = biological target: Fuc(a1-2)Gal6S(b1-4)GlcNAc
Procedure, shortened: as §1

Fuc(a1-2)GlcNAc = biological target: Fuc(a1-2)GlcNAc
Procedure, shortened: as §1

Fuc(a1-2)[Gal(a1-3)]Gal = biological target: Fuc(a1-2)[Gal(a1-3)]Gal
Procedure, shortened: as §1

[11] = biological target: Fuc(a1-2)[Gal(a1-3)]Gal(b1-3)GalNAc
Procedure, shortened: as §1

[12] = biological target: Fuc(a1-2)[Gal(a1-3)]Gal(b1-3)GalNAc(b1-3)Gal(a1-4)Gal(b1-4)Glc
Procedure, shortened: as §1

[13] = biological target: Fuc(a1-2)[Gal(a1-3)]Gal(b1-3)GlcNAc
Procedure, shortened: as §1

[14] = biological target: Fuc(a1-2)[Gal(a1-3)]Gal(b1-3)GlcNAc(b1-2)Man(a1-3)[Fuc(a1-2)[Gal(a1-3)]Gal(b1-3)GlcNAc(b1-2)Man(a1-6)]Man(b1-4)GlcNAc(b1-4)GlcNAc
Procedure, shortened: as §1

[15] = biological target: Fuc(a1-2)[Gal(a1-3)]Gal(b1-3)GlcNAc(b1-2)Man(a1-3)[Fuc(a1-2)[Gal(a1-3)]Gal(b1-3)GlcNAc(b1-2)Man(a1-6)]Man(b1-4)GlcNAc(b1-4)[Fuc(a1-6)]GlcNAc
Procedure, shortened: as §1

[16] = biological target: Fuc(a1-2)[Gal(a1-3)]Gal(b1-3)GlcNAc(b1-3)GalNAc
Procedure, shortened: as §1

[17] = biological target: Fuc(a1-2)[Gal(a1-3)]Gal(b1-3)GlcNAc(b1-6)GalNAc
Procedure, shortened: as §1

[18] = biological target: Fuc(a1-2)[Gal(a1-3)]Gal(b1-4)Glc
Procedure, shortened: as §1

[19] = biological target: Fuc(a1-2)[Gal(a1-3)]Gal(b1-4)GlcNAc
Procedure, shortened: as §1

[20] = biological target: Fuc(a1-2)[Gal(a1-3)]Gal(b1-4)GlcNAc(b1-2)Man
Procedure, shortened: as §1

[21] = biological target: Fuc(a1-2)[Gal(a1-3)]Gal(b1-4)GlcNAc(b1-2)Man(a1-3)[Fuc(a1-2)[Gal(a1-3)]Gal(b1-4)GlcNAc(b1-2)Man(a1-6)]Man(b1-4)GlcNAc(b1-4)GlcNAc
Procedure, shortened: as §1

[22] = biological target: Fuc(a1-2)[Gal(a1-3)]Gal(b1-4)GlcNAc(b1-2)Man(a1-3)[Fuc(a1-2)[Gal(a1-3)]Gal(b1-4)GlcNAc(b1-2)Man(a1-6)]Man(b1-4)GlcNAc(b1-4)[Fuc(a1-6)]GlcNAc
Procedure, shortened: as §1

[23] = biological target: Fuc(a1-2)[Gal(a1-3)]Gal(b1-4)GlcNAc(b1-3)GalNAc
Procedure, shortened: as §1

[24] = biological target: Fuc(a1-2)[Gal(a1-3)]Gal(b1-4)GlcNAc(b1-3)[Fuc(a1-2)[Gal(a1-3)]Gal(b1-4)GlcNAc(b1-6)]GalNAc
Procedure, shortened: as §1

[25] = biological target: Fuc(a1-2)[Gal(a1-3)]Gal(b1-4)GlcNAc(b1-6)GalNAc
Procedure, shortened: as §1

[26] = biological target: Fuc(a1-2)[Gal(a1-3)]Gal(b1-4)[Fuc(a1-3)]Glc
Procedure, shortened: as §1

[27] = biological target: Fuc(a1-2)[Gal(a1-3)]Gal(b1-4)[Fuc(a1-3)]GlcNAc
Procedure, shortened: as §1

[28] = biological target: Fuc(a1-2)[Gal(a1-3)]Gal(b1-4)[Fuc(a1-3)]GlcNAc(b1-3)GalNAc
Procedure, shortened: as §1

[29] = biological target: Fuc(a1-2)[Gal(a1-4)]Gal(b1-4)GalNAc
Procedure, shortened: as §1

[30] = biological target: Fuc(a1-2)[Gal(a1-4)]Gal(b1-4)GlcNAc
Procedure, shortened: as §1

[31] = biological target: Fuc(a1-2)[GalNAc(a1-3)]Gal
Procedure, shortened: as §1

[32] = biological target: Fuc(a1-2)[GalNAc(a1-3)]Gal(b1-3)GalNAc(a1-3)[Fuc(a1-2)]Gal(b1-4)GlcNAc
Procedure, shortened: as §1

[33] = biological target: Fuc(a1-2)[GalNAc(a1-3)]Gal(b1-3)GalNAc(b1-3)Gal(a1-4)Gal(b1-4)Glc
Procedure, shortened: as §1

[34] = biological target: Fuc(a1-2)[GalNAc(a1-3)]Gal(b1-3)GlcNAc
Procedure, shortened: as §1

[35] = biological target: Fuc(a1-2)[GalNAc(a1-3)]Gal(b1-3)GlcNAc(b1-2)Man(a1-3)[Fuc(a1-2)[GalNAc(a1-3)]Gal(b1-3)GlcNAc(b1-2)Man(a1-6)]Man(b1-4)GlcNAc(b1-4)GlcNAc
Procedure, shortened: as §1

[36] = biological target: Fuc(a1-2)[GalNAc(a1-3)]Gal(b1-3)GlcNAc(b1-2)Man(a1-3)[Fuc(a1-2)[GalNAc(a1-3)]Gal(b1-3)GlcNAc(b1-2)Man(a1-6)]Man(b1-4)GlcNAc(b1-4)[Fuc(a1-6)]GlcNAc
Procedure, shortened: as §1

[37] = biological target: Fuc(a1-2)[GalNAc(a1-3)]Gal(b1-3)GlcNAc(b1-3)GalNAc
Procedure, shortened: as §1

[38] = biological target: Fuc(a1-2)[GalNAc(a1-3)]Gal(b1-3)GlcNAc(b1-6)GalNAc
Procedure, shortened: as §1

[39] = biological target: Fuc(a1-2)[GalNAc(a1-3)]Gal(b1-4)Glc
Procedure, shortened: as §1

[40] = biological target: Fuc(a1-2)[GalNAc(a1-3)]Gal(b1-4)GlcNAc
Procedure, shortened: as §1

[41] = biological target: Fuc(a1-2)[GalNAc(a1-3)]Gal(b1-4)GlcNAc(b1-2)Man
Procedure, shortened: as §1

[42] = biological target: Fuc(a1-2)[GalNAc(a1-3)]Gal(b1-4)GlcNAc(b1-2)Man(a1-3)[Fuc(a1-2)[GalNAc(a1-3)]Gal(b1-4)GlcNAc(b1-2)Man(a1-6)]Man(b1-4)GlcNAc(b1-4)GlcNAc
Procedure, shortened: as §1

B1: Epa1-NP (Candida glabrata), Q6VBJ0 (protein)
chain: MILNPALFLNKCVCIYTTLILLLLTNGGYATSSNDISLASKDPTTFPLGCSPDITTPKKGLSMELYSYDFRKKGSYPCWDAAYLDPNYPRTGYKSHRLLAKVDGVTGNINFYYHATKGCTPQLGHLPASYNYPKPLTMTNFTMLLYGYFRPKVTGFHTFTISADDLLFVNFGAGNAFDCCRRDSSADHFGNYQAYAIWGSKTAKDELTVHLDAGVYYPIRLFYNNREYDGALSFTFKTESNENTVSDFSEYFFSLDDTEEGCPGLISYDSSCASVKTSKIIGIDYHTETPNENLVPITKTIYHLGIPCTGTTTTPLCGSGFYDPLANKCVTINTSSTSSVTKTTSHTTSKEVSFHSSISSQKTLIPKSIPSPYGPIKSQSIPTEMETSSEISSSEYAFSDVISTPSHSPYTKKHSSLNSSSYTSTVIHSLTSYSISQGIFSTSLSEQNITSKSSTDKFSTATSMSNNITQSSIIISQFSTNNENYTTTSMHTSSDKISTETLNNSISTTTSILFSNSSTILKNNTTIISSDKDTHYHPVNPTIVCSTNKTEIICASITQPSISNSNNHWSSSVLKFNSTTVRSTLPSSAGSNETSINVPFSSSTESNTSTSSTSTSNSKMVRSTLPSSAGSNETSISVPFSSSTESNTSTSSTSTSNSKMVRSTLPSSAGSNETSINVPFSSSTESNTSTSSTSTSNSKTVRSTPFSSAGIIMTSLSQRNNKSASSYASSNSKCYNTADSCRKVHSTPSYLLTSSYTSEGVDYDCSLVSTKLKINDTNCVNNKHTTKSCLKTSVTTTIPTLEIKTARKSSSNTIGLHSYPTSSPNKSISSAPIIGYISSFKTIKTASPSYQTSDLTTITTITSLNNPGSTAVENTHESNDKSRKTSSNDISSKHSVIKETKDAVESSNKSHQTNTLKCSSIIIASSSHNSYESLGGTTLTLTLSKVYSPQNNDTLPFLEISEVNPSRTVLPESSKMMQYLTSTEERNKTARNTIATNIVSISTFHFEGEGNAIRMGYTQLLLMLIGIIVMNIGT
- glycan array binding signal (z-score) [1]: -0.138
- glycan array binding signal (z-score) [2]: -0.292
- glycan array binding signal (z-score) [3]: -0.283
- glycan array binding signal (z-score) [4]: 0.099
- glycan array binding signal (z-score) [5]: -0.277
- glycan array binding signal (z-score) [6]: -0.26
- glycan array binding signal (z-score) [7]: -0.29
- glycan array binding signal (z-score) [8]: -0.253
- glycan array binding signal (z-score) (Fuc(a1-2)Gal6S(b1-4)Glc): -0.318
- glycan array binding signal (z-score) [9]: -0.297
- glycan array binding signal (z-score) [10]: -0.179
- glycan array binding signal (z-score) (Fuc(a1-2)GlcNAc): -0.542
- glycan array binding signal (z-score) (Fuc(a1-2)[Gal(a1-3)]Gal): -0.216
- glycan array binding signal (z-score) [11]: -0.251
- glycan array binding signal (z-score) [12]: -0.295
- glycan array binding signal (z-score) [13]: -0.287
- glycan array binding signal (z-score) [14]: -0.293
- glycan array binding signal (z-score) [15]: -0.281
- glycan array binding signal (z-score) [16]: -0.275
- glycan array binding signal (z-score) [17]: -0.298
- glycan array binding signal (z-score) [18]: -0.332
- glycan array binding signal (z-score) [19]: -0.241
- glycan array binding signal (z-score) [20]: -0.273
- glycan array binding signal (z-score) [21]: -0.268
- glycan array binding signal (z-score) [22]: -0.301
- glycan array binding signal (z-score) [23]: -0.269
- glycan array binding signal (z-score) [24]: -0.281
- glycan array binding signal (z-score) [25]: -0.29
- glycan array binding signal (z-score) [26]: -0.267
- glycan array binding signal (z-score) [27]: -0.284
- glycan array binding signal (z-score) [28]: -0.197
- glycan array binding signal (z-score) [29]: 1.74
- glycan array binding signal (z-score) [30]: -0.051
- glycan array binding signal (z-score) [31]: -0.287
- glycan array binding signal (z-score) [32]: -0.271
- glycan array binding signal (z-score) [33]: -0.282
- glycan array binding signal (z-score) [34]: -0.326
- glycan array binding signal (z-score) [35]: -0.294
- glycan array binding signal (z-score) [36]: -0.265
- glycan array binding signal (z-score) [37]: -0.097
- glycan array binding signal (z-score) [38]: -0.291
- glycan array binding signal (z-score) [39]: -0.333
- glycan array binding signal (z-score) [40]: -0.336
- glycan array binding signal (z-score) [41]: -0.294
- glycan array binding signal (z-score) [42]: -0.263
